In all, about 81,000 sequences were measured (“one-hybrid fitness for binding NBS DNA”: median about -0.1, highest 2% from about 0.36 on). This is one part of the list.
B1: Caulobacter ParB omega fusion; a variant is named by its letters at X, in order, B8GW30 (parent)
chain: MESVVVGEPGMSEGRRGLGRGLSALLGEVDAAPAQAPGEQLGGSREAPIEILQRNPDQPRRTFREEDLEDLSNSIREKGVLQPILVRPSPDTAGEYQIVAGERAWRAAQRAGLKTVPIMVRELDDLAVLEIGIIENVQRADLNVLEEALSYKVLMEKFERTQENIAQTIGKSXSHVANXMRLLXLPDEVQSYLVSGELTAXHARAIAAAADPVALAKQIIEGGLSVRETEALARKAPNLSAGKSKGGRPPRVKDTDTQALESDLSSVLGLDVSIDHRGSTGTLTITYATLEQLDDLCNRLTRGI

Variants of: B1
Assay: one-hybrid fitness for binding NBS DNA (the Noc-binding site; scaled: cognate 1, non-cognate 0); higher = stronger binding
Conditions: with NBS DNA site
Outline: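 Bacterial one-hybrid selection in E. coli USO rpoZ- hisB- pyrF- with a HIS3 reporter carrying the site 19 bp from the promoter, screening Caulobacter ParB libraries with four specificity codons randomised (NNS). Cells grew 48 hours at 37°C on M9-minus-histidine plus 0.1 mM IPTG and 5 mM 3-AT. Plasmids before and after selection were Illumina-sequenced, three replicate libraries pooled, and variants under 10 reads dropped. Fitness is the log change in variant-to-wild-type read ratio, rescaled to cognate 1, non-cognate 0.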

| Variant | one-hybrid fitness for binding NBS DNA |
| --- | --- |
| ISCR | ≤ 0.2 |
| AEVH | ≤ 0.2 |
| RVSP | ≤ 0.2 |
| LCHL | ≤ 0.2 |
| HKWV | ≤ 0.2 |
| IHPT | ≤ 0.2 |
| MEVV | ≤ 0.2 |
| RNVI | ≤ 0.2 |
| VHYR | ≤ 0.2 |
| RLLH | ≤ 0.2 |
| CRQL | ≤ 0.2 |
| LVPE | ≤ 0.2 |
| LKDF | ≤ 0.2 |
| PYRS | ≤ 0.2 |
| SELS | ≤ 0.2 |
| NRKS | ≤ 0.2 |
| RFGL | ≤ 0.2 |
| SWFR | ≤ 0.2 |
| YQLS | ≤ 0.2 |
| MEFS | ≤ 0.2 |
| PCAF | ≤ 0.2 |
| PQPC | ≤ 0.2 |
| QMRW | 0.288 |
| MSCG | ≤ 0.2 |
| GWYW | ≤ 0.2 |

| Variant | one-hybrid fitness for binding NBS DNA |
| --- | --- |
| CRPT | ≤ 0.2 |
| FFVP | ≤ 0.2 |
| TTGN | ≤ 0.2 |
| HSAM | ≤ 0.2 |
| MFLN | ≤ 0.2 |
| MHFG | ≤ 0.2 |
| PAFR | ≤ 0.2 |
| VVDL | ≤ 0.2 |
| QMWD | ≤ 0.2 |
| TMVG | ≤ 0.2 |
| RHFI | ≤ 0.2 |
| VTER | ≤ 0.2 |
| PCST | ≤ 0.2 |
| VNPR | ≤ 0.2 |
| QHQR | 0.523 |
| SLDG | ≤ 0.2 |
| MRKT | 0.332 |
| PSGL | ≤ 0.2 |
| NGLP | ≤ 0.2 |
| ICCS | ≤ 0.2 |
| EGEG | ≤ 0.2 |
| YASN | ≤ 0.2 |
| RYCH | ≤ 0.2 |
| PRKG | ≤ 0.2 |
| YTYT | ≤ 0.2 |

| Variant | one-hybrid fitness for binding NBS DNA |
| --- | --- |
| ETQR | ≤ 0.2 |
| VRRL | ≤ 0.2 |
| PVSA | ≤ 0.2 |
| ADVY | ≤ 0.2 |
| RYYY | ≤ 0.2 |
| LCKF | ≤ 0.2 |
| GCLC | ≤ 0.2 |
| HRPT | ≤ 0.2 |
| TDPL | ≤ 0.2 |
| CRQN | ≤ 0.2 |
| RICI | ≤ 0.2 |
| ACMG | ≤ 0.2 |
| FCQG | ≤ 0.2 |
| VQPE | ≤ 0.2 |
| ILQG | ≤ 0.2 |
| LFQI | ≤ 0.2 |
| LWHE | ≤ 0.2 |
| AELI | ≤ 0.2 |
| PNMF | ≤ 0.2 |
| TRVK | ≤ 0.2 |
| SGLR | ≤ 0.2 |
| EMHG | ≤ 0.2 |
| LPRK | ≤ 0.2 |
| RRSS | 0.643 |
| QCFG | ≤ 0.2 |

| Variant | one-hybrid fitness for binding NBS DNA |
| --- | --- |
| RPWE | ≤ 0.2 |
| YVNA | ≤ 0.2 |
| VTLK | ≤ 0.2 |
| QYEI | ≤ 0.2 |
| SMQT | ≤ 0.2 |
| WPKR | ≤ 0.2 |
| CLAL | ≤ 0.2 |
| PPSP | ≤ 0.2 |
| VHWG | ≤ 0.2 |
| STSS | ≤ 0.2 |
| SRSR | ≤ 0.2 |
| FELF | ≤ 0.2 |
| GSDR | ≤ 0.2 |
| RQSP | ≤ 0.2 |
| DSEG | ≤ 0.2 |
| HEGQ | ≤ 0.2 |
| GDRE | ≤ 0.2 |
| RETT | ≤ 0.2 |
| QQHF | ≤ 0.2 |
| STRE | ≤ 0.2 |
| SSHS | ≤ 0.2 |
| SHSE | ≤ 0.2 |

Source: a collection of fitness landscapes (doi:10.1016/j.celrep.2020.107928)
